According to the supplement of paper PMC3334620:
The full ranking holds about 33,000 sequences; the median of “E-score (-0.5 to 0.5)” is about -0.041, and the highest 2% start at about 0.37. The list shows a part of the results.

Target: T1, Ecm22 (UniProt Q05958)
T1 sequence: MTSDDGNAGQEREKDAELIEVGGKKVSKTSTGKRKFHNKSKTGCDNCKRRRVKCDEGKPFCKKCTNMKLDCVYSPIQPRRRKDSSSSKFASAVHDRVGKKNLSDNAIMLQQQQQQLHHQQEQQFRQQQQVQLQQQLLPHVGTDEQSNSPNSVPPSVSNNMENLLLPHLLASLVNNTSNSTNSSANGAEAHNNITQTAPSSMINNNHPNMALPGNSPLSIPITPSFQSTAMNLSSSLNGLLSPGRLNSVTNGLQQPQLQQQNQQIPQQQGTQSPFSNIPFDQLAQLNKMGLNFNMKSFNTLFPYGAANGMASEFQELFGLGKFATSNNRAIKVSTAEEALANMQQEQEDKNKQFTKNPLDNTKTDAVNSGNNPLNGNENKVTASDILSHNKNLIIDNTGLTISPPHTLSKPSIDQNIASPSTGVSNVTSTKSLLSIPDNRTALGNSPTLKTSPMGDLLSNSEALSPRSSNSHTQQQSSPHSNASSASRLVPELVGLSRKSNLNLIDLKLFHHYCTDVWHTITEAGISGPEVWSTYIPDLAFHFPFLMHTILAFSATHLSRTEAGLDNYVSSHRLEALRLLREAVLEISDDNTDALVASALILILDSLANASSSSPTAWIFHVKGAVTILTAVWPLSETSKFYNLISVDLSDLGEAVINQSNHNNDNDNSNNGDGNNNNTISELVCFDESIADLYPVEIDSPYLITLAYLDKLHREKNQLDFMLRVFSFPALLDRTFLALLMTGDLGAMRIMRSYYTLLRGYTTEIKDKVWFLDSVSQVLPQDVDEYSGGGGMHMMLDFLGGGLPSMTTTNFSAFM
Test: PBM E-score (8-mer binding enrichment) (E-score (-0.5 to 0.5)); higher = stronger / more preferred TF binding; most listed sequences are background and not binding sites
Conditions: protein concentration: 200 nM; construct: GST-full length
Method: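 Universal 'all 10-mer' protein binding microarrays (Agilent AMADID 015681) probed with GST-tagged S. cerevisiae TFs (full-length or DBD) made by in vitro transcription/translation (PURExpress), about 100-200 nM. Bound TF was detected with fluorescent anti-GST. Each ungapped 8-mer (which stands for itself and its reverse complement) is scored by the PBM enrichment score (E-score), a modified Wilcoxon-Mann-Whitney statistic from -0.5 to +0.5, computed with the Universal PBM Analysis Suite. Scale: above 0.35 generally sequence-specific binding.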

Sequence | PBM E-score
ACTGAGAG | -0.08
GCCCGTCC | -0.279
ACTTCTAA | -0.139
ACGGTACG | 0.436
TACTTGCA | -0.00207
AGGTTCTG | -0.121
AGTCGAAA | 0.066
CCTACATA | -0.178
GGGTCTGA | -0.385
GTGGCATA | -0.0686
GATACACA | -0.0375
CATTTTGG | -0.169
AGAAATAG | -0.0748
CTAAATCA | -0.0135
GTACCCGA | 0.225
ACACTGCT | -0.186
CTCTCCGA | -0.0719
TTCTCAAA | 0.0548
CCAGTTTC | -0.098
CACCCAGG | -0.0172
AAGCTAAG | -0.223
CCACGGAG | -0.163

Sequence | PBM E-score
TCCAAGAA | -0.14
ATTTTGGG | -0.125
CAAACTTA | -0.0805
CACATACA | -0.075
GGTCGTCA | 0.0226
AACTACCA | -0.0898
AAGCTTAA | 0.014
GCTCTGCA | -0.142
CACCACGG | -0.358
CTAAACCC | -0.107
ATTATTAG | 0.234
GGTCTCAA | -0.239
CGACACAG | 0.17
AGCATGCT | -0.118
CCCAACAA | -0.0191
CTAGATCC | 0.0224
CCTAAACC | -0.00691
GCCTGTGA | -0.362
ACGGTGAA | 0.237
GTCGTCAC | 0.084
AGCACTTA | 0.0258
ATTAGGTC | 0.125

Sequence | PBM E-score
ACCGCCGG | -0.155
GAATTAAA | -0.0485
GTTGTTCA | 0.168
TAGTACTA | 0.0335
CTACGTTA | 0.0833
GACCCTTA | -0.121
AAGATTAA | -0.0609
GAAACCTA | -0.25
CATTCCTC | 0.0616
AAGCTACA | -0.1
CATCACGC | 0.0605
ATGCTTAA | -0.0486
GCGTTCAC | 0.0595
ATGTTGCC | -0.0387
CAAGCCTG | -0.201
ACTACAGT | -0.0516
AGCGGCCC | -0.183
AAATGCGT | 0.104
TCATGTAA | -0.00199
GAGTCTGA | -0.0236
ATTTGTAC | 0.0801
CATAGACA | 0.0648

Sequence | PBM E-score
AATGCAAG | -0.181
CGTCTCAC | 0.0419
CGAGAGAC | 0.0669
CAATCCGC | -0.0795
ACTAAGAT | 0.0907
TGGTAAAA | -0.0114
AACATCAA | 0.0313
GCGAGTGA | 0.275
CGTAGGTC | -0.00765
ATAGAGGG | -0.00139
ACTTCTCC | -0.131
ATACCTAT | -0.00027
TATTGCGA | 0.12
CTGGTATA | -0.0939
GGCTTATA | -0.0276
TCCCGCCA | -0.229
ACCGAGTA | 0.286
AATCACGC | -0.0404
ATTGGGCG | -0.0468
CTATTTAC | 0.0921
